In PubChem BioAssay (NCI):
Several values for one entry are separate records, joined by “and”; a condition that tells them apart may be missing. Identical values can stand only once.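 Test compounds were applied to cells in 96-well plates for 48 hours at 5 doses. Abbreviation: GI50, concentration required for 50% inhibition of growth. TGI marks complete inhibition of growth.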

System: NCI-H322M lung
Experiment: inhibition of tumour cell growth, NCI panel, 48 h

SMILES	TGI	GI50
NS(=O)(=O)c1ccc(NC2=CC(=O)C(=O)c3ccccc32)cc1	> 100 µM	
OC1CCOc2ccccc21 (stereo unspecified)	> 100 µM	
COC(=O)C(=O)C(C(=O)C(=O)Nc1nc2ccc(C)cc2s1)c1nc2ccc([N+](=O)[O-])cc2[nH]c1=O (stereo unspecified)	> 100 µM	
O=C(O)CCc1ccc2c(c1)C(=O)CC2	> 100 µM	
COC1CCN(C(=O)c2cc(Cc3n[nH]c(=O)c4ccccc34)ccc2F)CC1	> 100 µM	> 100 µM
NC(=O)c1ccc(NN=O)nc1	> 100 µM	
Clc1cccc(Cl)c1C1CSc2ccccc2N=C1c1ccccc1 (stereo unspecified)	32.1 µM	14.3 µM
COCCCNC(=O)C1=C(C)NC(C)=C(C(=O)NCCCOC)C1	> 100 µM	
COc1cc(-c2nc3ccccc3s2)ccc1NC(=O)COc1ccc(Cl)cc1	> 100 µM	7.56 µM
CC(=O)O[C@H]1/C(=C/c2ccncc2)C[C@H]2[C@@H]3CC=C4C[C@@H](N5CCCC5)CC[C@]4(C)[C@H]3CC[C@]12C	26 µM	
CN(C)S(=O)(=O)/N=C/c1cccc(/C=N/S(=O)(=O)N(C)C)c1	> 100 µM	
CC(SC(=S)N1CCOCC1)C(=O)Nc1nnc(-c2ccccc2)o1 (stereo unspecified)	> 100 µM	
C/C=C/C1=CC(=O)C(O)C1O (stereo unspecified)	96.1 µM	
COc1ccc2c(c1)[n+](=O)c(C(=O)c1ccco1)c(C(F)(F)F)n2[O-]	21.5 µM	4.28 µM
NCCN1C(=O)CN=C(c2ccc(Cl)cc2)c2cc(Cl)ccc21	36.3 µM	
COc1cccc2c1OC(c1ccc(C#N)cc1)C([N+](=O)[O-])=C2 (stereo unspecified)	16.8 µM	
COc1cc(OC)c2nc(C)c3c(c2c1)NCC3	29.8 µM	
CCCCCCCCCCCCCC(=O)OCC1OC(n2cc(F)c(=O)[nH]c2=O)C(NC(=O)OCc2ccccc2)C(OC(=O)CCCCCCCCCCCCC)C1O (stereo unspecified)	> 100 µM	
CC(NC(=O)c1ccccc1)NC(=O)C(C)C(=O)Nc1ccccc1 (stereo unspecified)	> 100 µM	
CC1Oc2c(c(=O)oc3ccccc23)[C@@]1(C)CC1C[C@H](C)C(=O)O1 (stereo partly specified)	> 100 µM	
CCOc1ccc(N/C(Cl)=C(Cl)\C(=C(\Nc2ccc(OCC)cc2)n2nnc3ccccc32)[N+](=O)[O-])cc1	> 57.8 µM	
CC1(C)Cc2c(C#N)c(N)c3c(c2CO1)C(=O)OC3=O	> 100 µM	
O=C(CN(/C=C/C(=O)C(F)(F)F)c1ccc(Cl)cc1)c1ccccc1	42.6 µM	15.2 µM
COc1cc2cccc(N)c2cc1OC	> 100 µM	
CCOC(=O)c1cnc2n(c1=N)[C@H]1CCCC[C@@H]1N2	> 100 µM	

SMILES	TGI	GI50
COC(=O)C(CC(C)C)NC(=O)NC12CC3CC(CC(F)(C3)C1)C2 (stereo unspecified)	> 100 µM	
CCN1C(=O)N(CC)C2Nn3c(s/c(=C\c4ccccc4Br)c3=O)=NC21 (stereo unspecified)	> 100 µM	3.71 µM
O=C1c2ccccc2C(=O)N1CCN(CCN1C(=O)c2ccccc2C1=O)Cn1cccn1	> 100 µM	
CC1COc2c(N3CCN(C)CC3)c(F)cc3c(=O)c(C(=O)O)cn1c23 (stereo unspecified)	> 100 µM	> 100 µM
CCCCC(Sc1cc(Cl)c(C)cc1S(=O)(=O)Nc1n[nH]c(N)n1)C(=O)OC (stereo unspecified)	> 10 µM	
CN(C)CCN=C1Nc2ccccc2C(=S)N2CSCC12 (stereo unspecified)	> 100 µM	
OCC(O)C(O)C(O)c1nn(-c2ccc(Cl)cc2)c2nc3cc(Cl)c(Cl)cc3nc12 (stereo unspecified)	> 100 µM	
CCOC(=O)[C@@]12C[C@](/C=C/OC)(O[Si](C)(C)C)[C@@]13c1cc(OC)c(OC)cc1CCN3C(=O)C2O (stereo partly specified)	> 100 µM	
COc1ccc(C(=O)COC(=O)[C@H](C[Se][Se]C[C@H](NC(=O)c2ccc(Br)cc2F)C(=O)OCC(=O)c2ccc(OC)cc2)NC(=O)c2ccc(Br)cc2F)cc1	2.32 µM	0.332 µM
CC(C)(C)OC(=O)NCCc1cccc2c1oc1c(CCC(=O)O)cccc12	> 100 µM	
Cc1ccc(NC(=O)C(=O)C(C#N)c2nc(-c3ccc(-c4ccccc4)cc3)cs2)c(C)c1 (stereo unspecified)	> 100 µM	
CN(C)c1ccc(N=C2C=CC(=[N+](C)C)C=C2)cc1	> 100 µM	21.1 µM
C=C[C@@H]1C[C@]2(C(=O)OC)Cc3nc4ccccc4nc3CC(C(=O)OC)=C2O1	> 100 µM	
CC(C)NC(=O)OCc1c(COC(=O)NC(C)C)c(-c2cc[n+](COC(=O)C(C)(C)C)cc2)n2c1CCC2	> 100 µM	
Cc1cccc2c1N(C(=O)/C=C\C(=O)O)C(c1c(C)[nH]c3ccccc13)C2 (stereo unspecified)	> 100 µM	
CO[C@@H]1C=C[C@@]23c4cc5c(cc4C(=O)O[C@H]2CN(C)[C@H]3C1)OCO5	> 100 µM	
COc1ccc(/C(O)=C/c2nc3cccnc3nc2/C=C(\O)c2ccc(OC)cc2)cc1	> 100 µM	
CNC(=O)SCC(N)C(=O)O (stereo unspecified)	> 100 µM	
COc1ccc2cc(-c3cc4c(oc3=O)-c3ccccc3OC4O)c(=O)oc2c1 (stereo unspecified)	39.4 µM	19 µM
O=C(CSc1nc2[nH]ncc2c(=O)[nH]1)c1ccc(Cl)cc1	> 100 µM	
S=C1CC(c2ccccc2)Sc2ccccc2N1 (stereo unspecified)	> 100 µM	
COc1cc(C2C(C#N)=C(N)OC3=C2CCS(=O)(=O)c2ccc(C)cc23)cc(OC)c1OC (stereo unspecified)	> 100 µM	
CC(=O)Nc1cc2c3c(c1)CCCN3CCC2	> 100 µM	
C=C(C)[C@@H]1CC[C@]2(C(=O)O)CC[C@]3(C)[C@H](CC[C@@H]4[C@@]5(C)C[C@@H](CC#Cc6ccc(C(F)(F)F)cc6)[C@H](O)C(C)(C)[C@@H]5CC[C@]43C)[C@@H]12	> 100 µM	4.38 µM
CCc1n[nH]c(=O)n1/N=C/c1ccc(C)cc1	> 100 µM	

SMILES	TGI	GI50
CCOC(=O)c1c(C)n2c(=O)cc(C)c3c(O)c(O)cc1c32	9.49 µM	2.29 µM
Cc1ccccc1-n1ncc(C(=O)c2ccccc2)c1N	> 25 µM	> 25 µM
CC[P+](C)(C)c1ccccc1	> 100 µM	
O=c1[nH]nc(Cc2ccccc2)n1/N=C\c1ccccc1	> 100 µM	
O=C1c2nsnc2C(=O)c2c(F)c(F)c(F)c(F)c21	8.19 µM	2.97 µM
O=S(=O)(O)c1ccc(N=Nc2c(O)ccc3cc(Br)ccc23)cc1	> 100 µM	
Cc1ccc(-c2cc3c(SCC(=O)Nc4cc(C(F)(F)F)ccc4Cl)nccn3n2)cc1	> 100 µM	> 100 µM
Cc1ncc2c(=O)c3c(oc2n1)c1ccccc1n3Cc1ccccc1	> 100 µM	
CCN1C(=O)C(C)S/C1=N\NC(=O)CSc1nc2ccccc2c(=O)n1CC (stereo unspecified)	> 100 µM	
C=CCSC1=N/C(=C\c2cccs2)C(=O)N1CC=C	> 100 µM	
CN(NC(=O)c1cccs1)C1=NCCCCN1	> 100 µM	
CC(=O)Nc1ccc(-c2nc3ccccc3s2)cc1I	> 100 µM	
CCCCCCOc1ccc(C(=O)NO)cc1	57.4 µM	
CC1=NOC(=O)/C1=C/c1cccc2ccccc12	> 100 µM	
COC(=O)C1OC(O[C@H]2CC[C@]3(C)[C@H]4CC=C5[C@@H]6CC(C)(C)CC[C@]6(C(=O)OC6OCC(O)C(O)C6OC6OC(C)C(OC7OCC(O)C(OC8OCC(O)C(O)C8O)C7O)C(OC7OCC(O)C(O)C7O)C6O)CC[C@@]5(C)[C@]4(C)CC[C@H]3C2(C)C)C(O)C(OC2OCC(O)C(O)C2O)C1O (stereo partly specified)	10.1 µM and 12 µM	
CO/N=C(\C(=O)N(C)n1cnnc1)c1csc(NC(c2ccccc2)(c2ccccc2)c2ccccc2)n1	> 10 µM	
C[C@H](Nc1ncnc2nc[nH]c12)c1cc2ccc(F)cc2nc1-c1ccccn1	> 100 µM	59 µM
COc1cc(OC)c(/C=C\c2ccnc3ccccc23)c(OC)c1	14.9 µM	
NC1CCC(Nc2nc(NCc3ccc(-c4cccs4)nc3)c3ncn(C4CCCC4)c3n2)CC1 (stereo unspecified)	3.03 µM	0.0414 µM
CC(=O)Nc1cc(N(CCOS(C)(=O)=O)CCOS(C)(=O)=O)ccc1N=O	> 100 µM	
CC(=O)NC(c1nc2cc(C)c(C)cc2[nH]1)c1nc2cc(C)c(C)cc2[nH]1	> 100 µM	
Cc1ccc(S(=O)(=O)N2CCSCCN(S(=O)(=O)c3ccc(C)cc3)CCN(S(=O)(=O)c3ccc(C)cc3)CC2)cc1	> 100 µM	
CCCCCCCCOCC(O)COC(=O)CCCCCCC (stereo unspecified)	> 100 µM	
CC1=CC(=C(c2ccc(N)cc2)c2ccc(N)cc2)C=CC1=N	11.8 µM and 62.6 µM and 10.2 µM	0.953 µM and 3.59 µM
COc1ccc2c(CN3CCC(C(=O)O)CC3)cc3cc4c(cc3c2c1)OCO4	6.8 µM	2.12 µM

SMILES	TGI	GI50
CC1CCC2(C(=O)O)CCC3(C)C(=CCC4C5(C)CCC(O)C(C)(C)C5CCC43C)C2C1C (stereo unspecified)	15.9 µM and 30.8 µM	6.85 µM and 14 µM
CC1C[C@H](C)CC(C(O)CC2CC(=O)N(Cc3ccccc3)C(=O)C2)C1O (stereo partly specified)	> 100 µM	
Cc1[nH]nc(N)c1C(N)=O	> 100 µM	
COc1ccc(C(SCC(N)C(=O)O)(c2ccccc2)c2ccccc2)cc1 (stereo unspecified)	> 100 µM	0.279 µM
C[C@]12CC[C@H](O)C[C@H]1CC[C@@H]1[C@@H]2CC[C@]2(C)[C@@H](C3=CC(=O)OC3)[C@@H](O)C[C@]12O	6.79 µM	
CC1=CC[C@@]2(CO)[C@@H]([C@@H]1C)[C@H]1CC[C@@H]3[C@@]4(C)CC[C@H](O)C(C)(C)[C@@H]4CC[C@@]3(C)[C@]1(C)C[C@@H]2O	> 100 µM	
COc1cc(S(=O)(=O)Nc2ccc(-c3csc(N)n3)cc2)ccc1Cl	35.6 µM	
Cc1oc2c(Cl)cc(O)c(Cl)c2c2cccc1-2	> 100 µM	
COc1c(C(=O)c2ccc([N+](=O)[O-])cc2)cc(C(C)(C)C)cc1C(C)(C)C	> 100 µM	
O=c1ccn(C2OC(CO)C(O)C2[Se]c2ccccc2)c(=O)[nH]1 (stereo unspecified)	> 100 µM	
CNC(=O)N(CCC#N)CCCN(C(=O)NC)c1ccccc1	> 100 µM	
CCCCCCCCCCCCCCCCOCC(Cl)COP(=O)(O)OP(=O)(O)OCC1OC(n2cc(C)c(=O)[nH]c2=O)CC1O (stereo unspecified)	> 100 µM	
NNC(=O)CNC(=O)c1ccc(Cl)cc1Cl	> 100 µM	
N#Cc1c(N)[nH]c(=S)c(C#N)c1-c1ccccc1	> 100 µM	
O=C(O)c1ccc(NC(NC(=O)C(C(F)(F)F)C(F)(F)F)(C(F)(F)F)C(F)(F)F)cc1	> 100 µM	
COc1cc(OC)c(/C=C\c2cc(/C=C/c3c(OC)cc(OC)cc3OC)c3ccccc3[n+]2C)c(OC)c1	22.6 µM	
CN(C)CCNC(=O)C(C)(C)Oc1ccc(C(=O)c2ccc(Cl)cc2)cc1Cl	24.3 µM	
Nc1ccn(C2CCC(CO)O2)c(=S)n1 (stereo unspecified)	> 100 µM	
COC(=O)/C=C1/CCC(C)(C(=O)NS(=O)(=O)c2ccc(C)cc2)C1(C)C (stereo unspecified)	> 100 µM	
CCOC(=O)n1cc(C2=C(c3cn(C)c4ccccc34)COC2=O)c2ccccc21	> 100 µM	0.938 µM
CCC(=O)c1ccc2[nH]c3c(C)c4c(=O)cc(C)[nH]c4c(C)c3c2c1	> 100 µM	
N#Cc1c2c(c(N=P(c3ccccc3)(c3ccccc3)c3ccccc3)n3c1nc1ccccc13)CCCC2	> 100 µM	
CC(C)(C)C(=O)OCOP(=O)(OCOC(=O)C(C)(C)C)C1CC(O)N(O)C1=O (stereo unspecified)	39.7 µM	3.83 µM
